In experiment [1] the target is T1, MSLN-Avi ectodomain (human ectodomain of MSLN) (human, UniProt Q13421 296-598). Kind of experiment: written beside the aligned structure; no assay named on the sheet (the value is that of the SPR fit of FIG. 7D).
For experiment [2], the target named is T1, MSLN-Avi ectodomain (human ectodomain …). Kind of experiment: SPR, Biacore T100, 25 C; amatuximab captured on goat anti-human Fc (81.9 +/- 0.6 RUs), MSLN-Avi as analyte 0.20-50 nM in duplicate (50 nM in triplicate, long dissociation in the inset), 1:1 fit.
Experiment [3] has the same target. The experiment in a line: SPR, Biacore T100, 25 C, antibody captured on goat anti-human Fc, MSLN-Avi as analyte. In general terms: Surface plasmon resonance follows binding to a sensor surface in real time, without labels.

As a reminder, the Kd is a measure of binding affinity in units of concentration. What is called koff is the rate constant with which the complex falls apart. High values mean fast dissociation, low ones slow dissociation. For orientation: kon means the second-order rate constant of association. High values mean faster complex formation, low ones slower complex formation.

T1 sequence (Q13421 other isoform, or with tags, fused parts or gaps): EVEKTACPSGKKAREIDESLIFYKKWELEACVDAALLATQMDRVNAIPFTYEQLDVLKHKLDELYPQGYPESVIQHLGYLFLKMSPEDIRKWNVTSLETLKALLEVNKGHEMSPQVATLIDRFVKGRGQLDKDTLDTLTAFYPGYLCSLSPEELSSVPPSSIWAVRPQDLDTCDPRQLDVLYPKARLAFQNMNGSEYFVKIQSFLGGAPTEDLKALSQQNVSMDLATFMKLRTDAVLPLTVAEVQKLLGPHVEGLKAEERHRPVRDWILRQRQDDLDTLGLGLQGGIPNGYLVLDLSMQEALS

B1: amatuximab (antibody, V domains shown)
VH: not shown
VL: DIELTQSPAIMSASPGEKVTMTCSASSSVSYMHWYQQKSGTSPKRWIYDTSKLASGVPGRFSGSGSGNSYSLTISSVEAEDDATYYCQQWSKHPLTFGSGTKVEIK
As for B1, binding in experiment [1] was put at a Kd of 0.112 nM. In experiment [2], this molecule registered a Kd of 0.112 nM, a koff of 5.33e-05 s⁻¹ and a kon of 474000 M⁻¹ s⁻¹. For the same molecule, the “fold higher binding affinity (lower KD) than the 1A12 anti-MSLN antibody” value in experiment [3] was ~600 fold.

Source of the values: patent US20210309755A1 (FRED HUTCHINSON CANCER CENTER, published 2021).
